For 95 compounds, inhibition results are on record in PubChem BioAssay AID485344 (National Center for Advancing Translational Sciences (NCATS), 2010).

Screen size: about 340,000 compounds; about 6,900 (2%) were called active. Cut-off read from the data, not from the text of the source: active = inhibition above about 30%; inactive = below that, where a call was filed. The list shows a part of the results, in another mix than the full data. The source gives no active or inactive call for entries shown without one.

For orientation: inhibition means the drop in the measured response relative to a control, in per cent.

Chain of UniProt P14416 (P14416 whole entry, looked up): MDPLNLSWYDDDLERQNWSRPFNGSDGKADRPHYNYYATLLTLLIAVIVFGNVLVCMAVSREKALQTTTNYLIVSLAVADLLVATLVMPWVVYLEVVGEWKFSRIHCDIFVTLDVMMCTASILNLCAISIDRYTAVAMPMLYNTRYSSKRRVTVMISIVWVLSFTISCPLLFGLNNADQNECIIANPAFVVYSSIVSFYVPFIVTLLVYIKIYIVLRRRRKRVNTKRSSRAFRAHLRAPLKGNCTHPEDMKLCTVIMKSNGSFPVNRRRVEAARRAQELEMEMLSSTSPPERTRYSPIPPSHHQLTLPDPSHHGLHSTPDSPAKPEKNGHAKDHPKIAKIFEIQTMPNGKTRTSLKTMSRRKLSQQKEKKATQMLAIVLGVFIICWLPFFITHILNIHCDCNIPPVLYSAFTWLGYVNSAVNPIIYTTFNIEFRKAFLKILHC

This assay deals with D(2) dopamine receptor (Homo sapiens) (UniProt P14416). As to the kind of experiment: HTS Assay for Allosteric Antagonists of the Human D2 Dopamine Receptor: Primary Screen for Antagonists. Note: 0% is about no effect. Conditions: HEK293 TREx D2 cells, calcium flux, dopamine EC80; at 10 µM; stronger effect = higher value. In short, it runs like this:
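Dopamine at EC80 is the agonist stimulus; test compounds precede it by 180 s. Calcium flux read kinetically in a force-coupled, inducible HEK293 T-REx D2 cell line.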
On the technique in general: Calcium flux is commonly read through the fluorescence of an indicator in the cells.
With `Cc1oc(-c2ccc(C(=O)Nc3ccc(F)cc3F)cc2)nc1COc1ccccc1`, the inhibition was -9.93%.
Consider `CCN(CC)CCNC(=O)c1cn(-c2ccccc2)nc1-c1cccs1`, for which the inhibition is active: 36.8%.
As for `CC(C)(C)c1ccc(OCCSc2nc(-c3cccs3)nc3cc(=O)[nH]n23)cc1`, the figure is -14.5%; as for `COc1ccc(Nc2oc(-c3ccc(COc4ccc(OC)cc4)o3)nc2C#N)cc1`, 4.43%; as for `O=C(Cn1ncc2c3ccccc3n(Cc3ccc(Cl)cc3)c2c1=O)NCCCc1ccccc1`, -1.91%.
As for `CC(C)c1ccc(Nc2cc(C(=O)NCCc3ccccc3)c3ccccc3n2)cc1`, the inhibition is 4.02%.
With `CCC(C)NC(=O)C1CCN(C(=O)c2cc3sccc3n2Cc2ccc(Cl)cc2)CC1` (stereo not given), the inhibition was -11.8%.
For `CCc1ccccc1N1CC(c2nc3ccccc3n2CC(C)C)CC1=O` (stereo not given), the inhibition was found to be 5%.
For the compound `CCCCN(CC)c1ncnc2c1sc1nc(N3CCOCC3)c3c(c12)CCCC3`, the inhibition was -9.29%.
For `Cc1ccc(C)c(S(=O)(=O)c2nnn3c2nc(N2CCCC2)c2sccc23)c1` the value was -8.09%.
For `COc1ccc2[nH]cc(CCNC(=O)Nc3ccc(F)cc3)c2c1` the value was 7.1%.
`Cc1ccc(C)c(N2CCN(C(=O)c3cc(S(=O)(=O)N4CCCCC4)cn3C)CC2)c1`: the inhibition is -8.37%.
As for `CCCC(=O)Nc1nnc(SCc2cc(=O)c3cc(C)ccc3[nH]2)s1`, the figure is 7.64%.
As for `O=C(c1ccc(CSc2nc3ccncc3n2Cc2ccccc2F)cc1)N1CCCCCC1`, the figure is 0.667%; as for `CC(C)CCNC(=O)N1CCN(S(=O)(=O)c2ccc3c(ccn3C)c2)CC1`, 14.4%.
As for `CCOC(=O)c1c(S(=O)(=O)N2CCCC(C(=O)Nc3cc(C)ccc3OC)C2)c(C)n(C)c1C` (stereo not given), the figure is 5.33%; as for `CCOc1ccc(CCNC(=O)CCc2cn(Cc3ccc(C)cc3)c3ccccc23)cc1`, -3.41%; as for `COc1cccc(C2=NN(C(C)=O)C(c3cn(-c4ccccc4)nc3-c3cccs3)C2)c1` (stereo not given), 7.77%.
`CC1CCN(S(=O)(=O)c2ccc3c(c2)N(CC(=O)N2CCN(c4ccc(Cl)cc4)CC2)C(=O)CO3)CC1`: the inhibition was determined as 0.487%.
As for `COc1ccc(/C=C/c2onc(C)c2S(=O)(=O)N2CCC(C(=O)N3CCC(C)CC3)CC2)cc1`, the inhibition was -7.97%.
For `c1ccc2c(OCCCN3CCCCCC3)cccc2c1` the value was active: 73.9%; for `O=C(c1ccc2c(c1)OCO2)N1CCC2(CC1)Oc1ccc(Cl)cc1C(=O)C21CC(c2ccccc2)=NO1` (stereo not given), active: 42.1%.
As for `Cc1ccccc1CSc1nc(-c2ccccc2)nc2c1Cc1c(CO)cnc(C)c1O2`, the inhibition was -10.2%.
On to `COc1cccc(C(=O)NCC(c2ccc(N(C)C)cc2)N2CCOCC2)c1OC` (stereo not given), for which the inhibition came out at 7.33%.
As for `c1ccc(CN2CCC(Nc3ncnc4sccc34)CC2)cc1`, the inhibition was active: 77.5%.
Take `Cc1cccc(OCC(=O)N(Cc2cccc(Cl)c2)Cc2ccco2)c1C`: the inhibition is -9.95%.
Consider `COc1ccc2cc(-c3cn4c(n3)sc3cc(F)ccc34)c(=O)oc2c1`, for which the inhibition was -8.87%.
In the case of `Cc1ccc(S(=O)(=O)c2nc(-c3ccccc3)oc2N2CCCCCC2)cc1`, the inhibition was -1.51%.
With `Cc1ccc(NC(=O)N2CCN(c3nnc(C)c4c(C)n(-c5ccccc5)nc34)CC2)c(Cl)c1`, the inhibition was -10.1%.
For `CCc1ccccc1NC(=O)CCCN1C(=O)COc2ccc(C)cc21` the value was -4.19%; for `CCNc1nc(Oc2ccc(OCC(=O)OC)nn2)nc(N2CCOCC2)n1`, 2.39%; for `CCOc1ccc(-c2cccc(NS(=O)(=O)c3ccc(Cl)s3)c2)nn1`, 5.25%.
On to `COc1ccc(NC(=O)CCCNC(=O)c2ccc(Cl)cc2)c(OC)c1`, for which the inhibition is active: 30.3%.
With `CCOc1ccc2nc(N3CCCC(C(=O)NCc4ccc(OC)cc4)C3)sc2c1` (stereo not given), the inhibition was determined as 1.27%.
As to `CCOC(=O)N1CCc2c(sc(NCc3cccs3)c2C(=O)Nc2cc(OC)ccc2OC)C1`, the inhibition is 4.17%.
Regarding `CC(C)c1ccc(Nc2cc(C(=O)NCc3cccs3)c3ccccc3n2)cc1`, the inhibition was -2.61%.
Turning to `CCOC(=O)c1nnn(C(CC)C(=O)Nc2c(C)cccc2C)c1C(=O)OCC` (stereo not given), the inhibition is -10.1%.
With `CCN(CC)C(=O)CSc1nnc2[nH]c(=O)cc(C)n12`, the inhibition stood at 21.6%.
For `CCc1cccc(NC(=O)c2c(C)oc3ncnc(N4CCCCC4)c23)c1` the value was 4.68%; for `COc1ccc(C(=O)c2oc3ccccc3c2NC(=O)c2nc(SC)ncc2Cl)cc1Cl`, -8.75%; for `O=C1CN(C(=O)COc2ccc(Cl)cc2Cl)C(c2ccc(F)cc2)c2cc(F)ccc2N1` (stereo not given), 0.329%.
On to `COc1cc(OC)c(NC(=O)c2cnc(N3CCCC3)nc2C)cc1Cl`, for which the inhibition is -9.29%.
As for `CCSc1ncc(Cl)c(C(=O)Nc2sc(C(C)=O)c(C)c2C(=O)OC)n1`, the figure is 1.58%.
As to `COCCCN1C(=O)C(O)=C(C(C)=O)C1c1cccc(F)c1` (stereo not given), the inhibition was active: 36.8%.
Take `COc1ccc(CNC(=O)c2ccc(Sc3ccc(Cl)cc3)c(NC(C)=O)c2)c(OC)c1`: the inhibition is -5.04%.
For `CCCC(=O)Nc1cccc(-c2nc3cc(C)c(C)cc3o2)c1C` the value was 5.39%; for `COC(=O)c1ccc2oc(=O)c(S(=O)(=O)c3ccc(C)cc3)cc2c1`, 20.3%.
Take `CC(=O)Nc1ccc(NC(=O)CSc2nnc3c4cc(Br)ccc4n(C)c3n2)cc1`: the inhibition turned out to be 5.08%.
Consider `Cc1ccc(CNC(=O)C2CCN(c3nc4ccc(C)cc4[nH]3)CC2)cc1`, for which the inhibition was -3.62%.
On to `CC(=O)Nc1cccc(-c2nnc(SCC(=O)c3cc([N+](=O)[O-])ccc3Br)o2)c1`, for which the inhibition was 0.097%.
`CCCN1CCN(CCCNC(=O)c2cnn(-c3ccc(C)cc3)c2-n2cccc2)CC1`: the inhibition stood at 14.3%.
As for `CC(=O)c1cccc(Nc2c3c(nc4nc(-c5cccs5)nn24)CCCC3)c1`, the inhibition is -7.6%.
With `COc1ccc(NC(=O)CCc2c(C)nc3c(-c4ccccc4)c(C)nn3c2C)cc1Cl`, the inhibition was found to be 24%.
As for `Cc1ccc2c(c1)c1c(c(=O)n(-c3ccccc3C)c(=O)n1Cc1ccccc1F)n2C`, the figure is -0.635%.
`Cn1c(C(=O)NCc2ccc(Cl)cc2)cc2c(=O)n(C)c3ccccc3c21`: the inhibition was -3.56%.
For `Cc1ccc(Cl)cc1NC(=O)Cn1c(=O)oc2cc(S(=O)(=O)N3CCCCCC3)ccc21` the value was 7.85%.
As for `Cc1ccc(NC(=O)c2ccc(=O)n(CC(=O)Nc3cc(C)cc(C)c3)n2)cc1`, the inhibition was determined as 6.94%.
Regarding `COc1ccc(-c2noc(C(C)NC(=O)c3ccco3)n2)cc1` (stereo not given), the inhibition was 8.56%.
For `Cc1cccc2c1-c1sc(C(=O)NCCCN3CCN(c4cccc(Cl)c4)CC3)cc1CO2` the value was -19%; for `Fc1ccc(-n2ncc3c(Nc4ccc(Oc5ccccc5)cc4)ncnc32)cc1`, -12.9%.
As for `Cc1ccc(OCC(=O)Nc2c(Cl)ccc3nsnc23)cc1C`, the figure is 10.8%.
Turning to `COc1cccc(C(=O)NC(c2ccc(Cl)cc2)c2cc(Cl)c3cccnc3c2O)c1` (stereo not given), the inhibition was 8.58%.
As for `CCc1ccccc1NC(=S)N(CCN1CCOCC1)C1CCN(C(C)=O)CC1`, the figure is active: 30.9%; as for `CCn1cc(C(=O)NCc2ccc(Cl)cc2)c(=O)c2cc(S(=O)(=O)N(C)C)ccc21`, active: 32.1%.
As for `FC(F)(F)c1ccc(C2=Nc3ccccc3NC(c3cccs3)=N2)cc1`, the figure is -4.29%; as for `COc1ccc(Nc2ncc(C(=O)Nc3cc(C)ccc3OC)c3ccccc23)cc1`, 17.2%; as for `O=C(COc1ccc(F)cc1)Nc1cccc(OCc2cc(=O)n3ccccc3n2)c1`, 6.5%.
Regarding `Cc1ccc(-n2nc(C)c3c(C)cc(=O)n(CC(=O)NCc4ccc(OC(C)C)cc4)c32)cc1`, the inhibition is -9.6%.
For the compound `N#Cc1ccccc1Cn1c(=O)n(-c2ccc(F)c(Cl)c2)c(=O)c2sccc21`, the inhibition is 13.2%.
As for `COc1ccc(CC(=O)NCCc2csc(-c3cccc(F)c3)n2)cc1OC`, the figure is -15.8%; as for `Cc1ccc(C)c(NC(=O)Cn2c(=O)n(Cc3ccco3)c(=O)c3ccc(C(=O)NC4CCCC4)cc32)c1`, 10.9%.
For `O=C(C1CCN(c2ncnc3c2nc2n3CCCCC2)CC1)N1CCN(c2ccccc2)CC1`, the inhibition is -10.7%.
As for `Cc1ccc(S(=O)(=O)Nc2cc3c(C(=O)OCc4ccccc4)c(C)oc3c3ccccc23)cc1`, the inhibition is 26.4%.
Regarding `O=C(C1=C(Nc2ccccc2)c2ccccc2S(=O)(=O)N1)c1ccccc1`, the inhibition is active: 39.7%.
For the compound `COc1cccc(NC(=O)Cn2c(=O)n(C)c(=O)c3sc4c(c32)COC(C)(C)C4)c1`, the inhibition is active: 42.9%.
As for `CCOC(=O)c1ccccc1NC(=O)c1sc2ncn(CC)c(=O)c2c1C`, the inhibition was found to be 1.05%.
As for `Cc1cc(C)cc(OCC(=O)NCC2(N3CCOCC3)CCCCC2)c1`, the figure is -4.37%; as for `O=C(Cn1c(SCCOc2ccccc2Cl)nc2ccccc21)N1CCCCC1`, 0.747%; as for `CC(=O)c1cccc(NC(=O)c2ccc(-c3ccccc3[N+](=O)[O-])o2)c1`, active: 32.8%.
For `COc1ccc(N2CCN(C(=O)c3nn(C)c4c3CSc3ccccc3-4)CC2)cc1` the value was 12.5%; for `CCc1ccc(C(=O)c2cn(CC(=O)Nc3ccc(OC)c(Cl)c3)c3nc(C)ccc3c2=O)cc1`, 3.43%; for `Cc1sc2nc(CSCC(=O)Nc3c(Cl)cccc3Cl)[nH]c(=O)c2c1C`, active: 43.2%.
Regarding `CCCN(C(=O)NCc1noc2ccc(C)cc12)c1ccc(Cl)c(Cl)c1`, the inhibition came to 6.83%.
As for `CC1=C(C(=O)Nc2cccc(C(F)(F)F)c2)C(c2ccccn2)n2ncnc2N1` (stereo not given), the figure is 13.8%; as for `CCC(=O)Nc1ccccc1-c1nc2ccccc2n(CC(=O)c2ccc(Br)cc2)c1=O`, 2.02%; as for `Cc1ccc(Cl)cc1NC(=O)Cn1cc(S(=O)(=O)Cc2ccccc2Cl)c2ccccc21`, 3.12%.
For `COc1cccc(-c2nc(CS(=O)(=O)CC(=O)NCCCc3ccccc3)c(C)o2)c1` the value was -25.9%; for `Cc1ccc(S(=O)(=O)N2CCCc3cc(NC(=O)c4ccc(C(C)(C)C)cc4)ccc32)cc1`, 3.76%.
Turning to `CCN(CC)c1ccc(NC(=O)c2sc3nc(-c4ccccc4)cn3c2C)cc1`, the inhibition was -19.3%.
On to `CCOC(=O)c1cccc(NC(=O)NCc2ccc3c(c2)CCN3C(=O)CC)c1`, for which the inhibition was determined as 2.13%.
As to `CCCn1c2ccccc2c2cnn(CC(=O)NCCc3cc(OC)ccc3OC)c(=O)c21`, the inhibition is -9.92%.
For `Cc1nc(-c2ccc(F)cc2)sc1CCNC(=O)C(=O)Nc1ccc2c(c1)OCO2` the value was 2.75%.
Take `CC(=O)c1cc(-c2ccc(F)cc2)n(CC(=O)NCc2ccc(C)cc2)c1C`: the inhibition amounted to 5.75%.
As to `Cc1cc(C)c(OCC(=O)Nc2cccc(-c3nc4ncccc4o3)c2)c(Br)c1`, the inhibition was found to be 14.8%.
On to `CC1CCN(S(=O)(=O)c2ccc3nc(N4CCN(c5ccccc5)CC4)ccc3c2)CC1`, for which the inhibition worked out at 2.81%.
